Measured values: patent publication US8853437B2, “Anti-inflammatory compounds” (The University of Tokyo, priority 2009, dated 2014)
At least one structure is not confirmed: it was looked up by name or label, or the drawing left a doubt. Some compounds share one wording; it may come from a single statement.

Test system: infiltration of neutrophil
Experiment: zymosan peritonitis model
Assay type: in vivo, mouse C57BL/6J
Settings: for neutrophil infiltration suppressing activity / neutrophil infiltration suppressing activity compared with dexamethasone: Example 9; for neutrophil infiltration suppressing activity: 100 pg to 100 ng/mouse via tail vein, 2 hours after zymosan (FIG. 10); for neutrophil infiltration suppressing activity compared with dexamethasone: 1 ng compound versus 1 μg dexamethasone (FIG. 10)
Method: For an inflammation model, zymosan peritonitis elicited by intraperitoneally administering zymosan being a cell wall component of yeast was used. Since an exudate in an abdominal cavity can be recovered, the present model is a model suitable for analyzing cytokines and eicosanoids.
Zymosan A (Wako Pure Chemical Industries, Ltd.) was suspended in a physiological saline to 1 mg/mL, and the suspension was warmed at 37° C. for 30 minutes. Thereafter, this zymosan A solution was vortexed, and returned to room temperature. The compound synthesized in the previous Example, 17,18-diHEPE was taken into a 1.5 mL tube, and a solvent was vaporized with nitrogen to complete dryness and, thereafter, a physiological saline was added to dissolve it. Then, 100 μL of this compound solution was injected (1 ng or 10 ng/mouse) through a tail vein of C57BL/6J mouse (7 weeks old, mail: CLEA Japan, Inc.). As a control, a group in which only a physiological saline was injected, and a group in which dexamethasone (10 μg/mouse) being an anti-inflammatory steroid was injected, were used. After about 2 minutes, 1 mL of a zymosan A solution was intraperitoneally administered. After 2 hours, cells exuded into an abdominal cavity were recovered into a tube with a PBS, and the cell number was counted. Thereafter, this tube was centrifuged at 1200 rpm and 4° C. for 5 minutes to remove the supernatant, a precipitate (pellet) was suspended in PBS, and a population was analyzed by three-color staining of FACS.
Abdominal cavity cells were adjusted to 2.5×10^6 cells/mL, and 200 μL was placed into a 5 mL round-bottom tube (BDFalcon) (5×10^5 cells/tube). To this tube was added an anti-mouse CD16/CD32 antibody (0.5 mg/mL; BDBiosciences) at 1 μL per tube, and this was incubated at room temperature for 10 minutes. To this tube was added a staining antibody mix (prepared by diluting 1.0 μL of FITC bound anti-mouse F4/80 antibody (0.5 mg/mL; eBiosciences), 0.5 μL of PE bound anti-mouse Ly-6G & Ly-6C antibody (0.2 mg/mL; eBiosciences) and 0.5 μL of PerCP-Cy5.5 bound anti-mouse CD11b antibody (0.2 mg/mL; eBiosciences) in 50 μL of PBS, per sample) at 50 μL/tube, and this was incubated at room temperature for 15 minutes under light shielding. Measurement was performed by FACS Calibur (BDBiosciences). […]

SMILES	neutrophil infiltration suppressing activity	other results
CCC(O)C(O)/C=C/C=C/C=C\C/C=C\C/C=C\CCCC(=O)O (stereo not drawn) [17,18-diHEPE, 17,18-dihydroxyeicosapentaenoic acid]	statistically significant effect is seen	neutrophil suppressing activity compared with dexamethasone (10 ng compound versus 10 μg dexamethasone (FIG. 4A, 4C)): almost equal to 10 μg/mouse of dexamethasone; dose dependence of activity in peritonitis model (Example 4, 1 ng or 10 ng/mouse (FIG. 4A(b), 4D)): dose-dependent; neutrophil infiltration suppressing activity compared with dexamethasone: exceeding that of 1 μg of dexamethasone; activity on neutrophil as compared with other existing drugs (FIG. 4C): remarkably high activity
CCC(O)C(O)/C=C/C=C/C=C\C/C=C\C/C=C\C/C=C\CCC(=O)O (stereo not drawn) [19,20-diHDoHE, 19,20-dihydroxydocosahexaenoic acid]	statistically significant effect is seen	–
CCC(O)/C=C/C=C\CC(O)/C=C\C=C/C/C=C\CCCC(=O)O (stereo not drawn) [12,18-diHEPE, 12,18-dihydroxyeicosapentaenoic acid]	statistically significant effect is seen	–
CCC(O)/C=C/C=C\CC(O)/C=C\C=C/C/C=C\C/C=C\CCC(=O)O (stereo not drawn) [14,20-diHDoHE, 14,20-dihydroxydocosahexaenoic acid]	statistically significant effect is seen	neutrophil infiltration suppressing activity compared with dexamethasone: exceeding that of 1 μg of dexamethasone
CCC(O)/C=C/C=C\C=C\C(O)C/C=C\C/C=C\CCCC(=O)O (stereo not drawn) [11,18-diHEPE, 11,18-dihydroxyeicosapentaenoic acid]	tendency	–
CCC(O)/C=C/C=C\C/C=C\C=C/C(O)C/C=C\C/C=C\CCC(=O)O (stereo not drawn) [10,20-diHDoHE, 10,20-dihydroxydocosahexaenoic acid]	statistically significant effect is seen	–
CCC(O)/C=C/C=C\C/C=C\C=C/C(O)C/C=C\CCCC(=O)O (stereo not drawn) [8,18-diHEPE, 8,18-dihydroxyeicosapentaenoic acid]	statistically significant effect is seen	–
